{
  "source": "PubChem BioAssay (NCI)",
  "note": "Several values for one entry are separate records, joined by “and”; a condition that tells them apart may be missing. Equal values may be shown once.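 Exposure lasted 48 hours, with cells grown in 96-well plates and compounds tested at five concentrations. Here, GI50 denotes the concentration required for 50% inhibition of growth. TGI is the concentration that stops growth completely.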",
  "data": [
    {"system": "NCI-H322M lung", "experiment": "NCI tumour cell line growth inhibition, 48 h", "units": {"TGI": "µM"}, "values": [
      {"smiles": "Oc1c(CN2CCCCC2)ccc2cccnc12", "GI50": "2.49 µM", "TGI": 13.5},
      {"smiles": "NC1=Nc2ccccc2Sc2nccn21", "TGI": "> 100"},
      {"smiles": "C/C(CC(O)(C(F)(F)F)C(F)(F)F)=N\\NC(N)=S", "TGI": "> 10"},
      {"smiles": "N#CC1(C#N)C(=O)c2ccncc2C1=O", "TGI": "> 100"},
      {"smiles": "CCOC(=O)c1ccc(NCc2ccc3nc(OC)c(OC)nc3c2)cc1", "TGI": "> 100"},
      {"smiles": "CCCC(=O)Nc1cc(/C=C/C(=O)N2CC(CCl)c3ccc([N+](=O)[O-])cc32)n(C)c1", "note": "(stereo not given)", "TGI": "> 100"},
      {"smiles": "OC(c1cc2ccccc2[nH]1)C(O)(c1cc2ccccc2[nH]1)c1cc2ccccc2[nH]1", "note": "(stereo not given)", "TGI": 87.9},
      {"smiles": "CCCC[n+]1ccn(-c2nc3ccccc3n2C)c1", "TGI": "> 100"},
      {"smiles": "Cc1ccc(C(=O)C2C=C(c3ccc(C)cc3)SC3C=CCC32)cc1", "note": "(stereo not given)", "TGI": 76.1},
      {"smiles": "O=c1cccccc1O", "TGI": "> 100"},
      {"smiles": "COc1cc(/C=C2\\C(=O)Nc3ccc(Cl)cc32)cc(OC)c1OC", "GI50": "84.7 µM", "TGI": "> 100"},
      {"smiles": "O=C(O)CN1CCN2CCCCCCCCN(CC1)CCN(CC(=O)O)CC2", "TGI": "> 100"},
      {"smiles": "O=C1NCN(c2ccccc2)C12CCN(CCCN1CCN(CCOC(c3ccccc3)c3ccccc3)CC1)CC2", "TGI": 7.82},
      {"smiles": "O=C1CC=C2C3CC4N(CCC45c4ccccc4N1C25)C/C3=C\\CO", "note": "(stereo not given)", "TGI": "> 100"},
      {"smiles": "Oc1cccc2cccnc12", "GI50": "6.43 µM and 30 µM and 13.2 µM", "TGI": "> 100"},
      {"smiles": "CC1=NC(C)=C(/C(C)=N/NC(=O)c2ccccc2O)C(C)/C1=C(/C)NNC(=O)c1ccccc1O", "note": "(stereo not given)", "TGI": "> 100"},
      {"smiles": "CC(=O)N(N=O)c1ccc(N(N=O)C(C)=O)cc1", "TGI": "> 100"},
      {"smiles": "COc1c(O)cc2c(c1O)C(=O)C(Cc1ccc(O)cc1)CO2", "note": "(stereo not given)", "TGI": "> 100"},
      {"smiles": "COC1CC(O[C@H]2CC[C@@]3(C)C(=CCC4(O)C3CCC35C(=O)OC6(C)O[C@@]43CCC65)C2)OC(C)C1O", "note": "(stereo not given in full)", "TGI": "> 100"},
      {"smiles": "C/C(COc1ccc2oc(-c3ccccc3)cc(=O)c2c1)=N\\O", "GI50": "21.4 µM", "TGI": 90.9},
      {"smiles": "CO[C@H]1/C=C/O[C@@]2(C)Oc3c(C)c(O)c4c(O)c(c(/C=N/N5C(C)CN(Cc6ccc(C#N)cc6)CC5C)c(O)c4c3C2=O)NC(=O)/C(C)=C\\C=C\\[C@H](C)[C@H](O)[C@@H](C)[C@@H](O)[C@@H](C)[C@H](OC(C)=O)[C@@H]1C", "note": "(stereo not given in full)", "GI50": "11.6 µM", "TGI": 26.3},
      {"smiles": "Cc1nc(-c2cccnc2)sc1C(=O)CC(=O)C(=O)Nc1cccc(NC(=O)C(=O)CC(=O)c2sc(-c3cccnc3)nc2C)n1", "TGI": "> 100"},
      {"smiles": "C[C@H](CCC(=O)O)[C@H]1CC[C@H]2[C@@H]3[C@H](O)[C@H](O)[C@@H]4C[C@H](O)CC[C@]4(C)[C@H]3CC[C@]12C", "TGI": "> 100"},
      {"smiles": "C[N+]1(CCNP(=S)(NCC[N+]2(C)Cc3c(ccc4c3OCO4)C3C2c2cc4c(cc2C[C@@H]3O)OCO4)NCC[N+]2(C)Cc3c(ccc4c3OCO4)C3C2c2cc4c(cc2C[C@@H]3O)OCO4)Cc2c(ccc3c2OCO3)C2C1c1cc3c(cc1C[C@H]2O)OCO3", "note": "(stereo not given in full)", "GI50": "16.1 µM"},
      {"smiles": "COc1ccc2c(c1)C(=O)/C(=C/c1ccc(O)cc1)O2", "GI50": "72.9 µM", "TGI": "> 100"},
      {"smiles": "Cc1cc2c3c(nc2c2cc[nH]c(C)c12)CCCC3", "TGI": 12.7},
      {"smiles": "Cc1ccc(F)c2[nH]c(-c3ccccc3)cc(=O)c12", "TGI": "> 100"},
      {"smiles": "COc1ccc2nc(N/N=C/c3ccc(C)s3)cc(C)c2c1", "TGI": 30.4},
      {"smiles": "O=C1/C(=C/c2ccc([N+](=O)[O-])cc2)CCCc2ccccc21", "TGI": "> 100"},
      {"smiles": "CN1C(c2ccccc2)CC(=NO)CC1c1ccccc1", "note": "(stereo not given)", "TGI": "> 100"},
      {"smiles": "C=CCC1(CN(C)C)CC/C(=C\\c2cc(OC)c(OC)c(OC)c2)C1=O", "note": "(stereo not given)", "TGI": "> 100"},
      {"smiles": "FC(F)(F)c1cccc(Oc2ccc(Nc3ncnc4ccc(OCCCN5CCOCC5)cc34)cc2Cl)c1", "GI50": "1.7 µM", "TGI": 7.13},
      {"smiles": "CCN(CC)CCOCCOCC1(c2ccc(Cl)c(Cl)c2)CCCCC1", "TGI": 26.2},
      {"smiles": "C/C1=C\\[C@@H](C)C[C@@H](C)OC(=O)[C@@H](C)NC(=O)[C@H](Cc2ccc(O)c(Br)c2)N(C)C(=O)CNC(=O)[C@H](C)C1", "TGI": "> 100"},
      {"smiles": "O=C(N/C(=C\\c1cccc([N+](=O)[O-])c1)c1nc2c3c(ccc2[nH]1)C(=O)c1ccccc1C3=O)c1ccccc1", "TGI": "> 100"},
      {"smiles": "CC(C)CC(C#CCCOC(=O)c1ccccc1)OC(=O)c1ccccc1", "note": "(stereo not given)", "TGI": "> 10"},
      {"smiles": "COC1=CC(c2ccc[nH]2)=N/C1=C\\c1[nH]c(C)c(CC(=O)NCc2ccccc2)c1C", "GI50": "1.77 µM", "TGI": 3.29},
      {"smiles": "O=C(Nc1ccc(Cl)cc1)c1cc(NCc2cc(O)ccc2O)ccc1O", "GI50": "16.1 µM", "TGI": 57},
      {"smiles": "O=C(/C=C/c1ccc(-c2ccccc2)cc1)c1ccccc1", "TGI": "> 100"},
      {"smiles": "Cc1ccc(NC(=O)CCc2nnc3s/c(=C\\C=C\\c4ccccc4)c(=O)n23)cc1", "TGI": "> 100"},
      {"smiles": "Oc1ccc(O)c(-n2cccn2)c1", "TGI": "> 100"},
      {"smiles": "CCCCC1Nc2ccccc2-c2ccnc(Cl)c21", "note": "(stereo not given)", "TGI": "> 100"},
      {"smiles": "CC(=O)OC(OC(C)=O)c1c2ccccc2cc2ccccc12", "TGI": 81.7},
      {"smiles": "CCc1cc2c(cc1C(=O)CCC(=O)O)CC1(C2)Cc2cc(CC)c(C(=O)CCC(=O)O)cc2C1", "TGI": "> 100"},
      {"smiles": "O=c1c2ccccc2ncn1COCc1ccccc1", "TGI": "> 100"},
      {"smiles": "COP(=O)(/C=C/C(NC(=O)C(Cl)(Cl)Cl)c1ccccc1)OC", "note": "(stereo not given)", "TGI": "> 100"},
      {"smiles": "CC1(C)C(CBr)=[N+]([O-])C(C)(C)N1O", "TGI": "> 10"},
      {"smiles": "COc1ccccc1N1C(=O)CSC1c1cccc(Oc2ccccc2)c1", "note": "(stereo not given)", "TGI": 48.1},
      {"smiles": "Oc1ccc(Br)cc1C=NC1CCCCC1", "TGI": "> 100"},
      {"smiles": "CC(=O)CCc1ccc(Oc2c3ccccc3nc3occc23)cc1", "GI50": "18.5 µM", "TGI": 39.2}
    ]}
  ]
}
